Reference: PubChem BioAssay AID1768 (National Center for Advancing Translational Sciences (NCATS), 2009)
The campaign covered roughly 270,000 compounds. About 620 (0.23%) were called active. The shares of active, inactive and inconclusive entries below differ from those in the screen. Calls come from the whole dose curve; as a rule, active = well fitted inhibition curve with a large enough effect in the polarisation, with a control signal flat (not every such curve was filed as active); inconclusive = small, poorly fitted or top-dose-only effect, or effect the other way, or a change in a side signal; inactive = no such curve, though single readings can be large or run the other way; the % refers to the polarisation. Potencies beside an inconclusive call are fits to weak or partial responses and may not hold up. “Side channel” marks fits to a control or component signal instead of the main read-out.
Potency is the fitted concentration of half-maximal effect; tags give direction and shape of the fitted curve or compound fluorescence and quenching.

The compounds below were run against Menin (Homo sapiens) (UniProt O00255) (assay: qHTS Assay for Inhibitors Targeting the Menin-MLL Interaction in MLL Related Leukemias: Competition With Texas Red Labeled MLL-derived Mutant Peptide). Conditions: fluorescence polarization; series mostly up to 61.6 µM.
Sequence of UniProt O00255 (O00255 whole entry, looked up): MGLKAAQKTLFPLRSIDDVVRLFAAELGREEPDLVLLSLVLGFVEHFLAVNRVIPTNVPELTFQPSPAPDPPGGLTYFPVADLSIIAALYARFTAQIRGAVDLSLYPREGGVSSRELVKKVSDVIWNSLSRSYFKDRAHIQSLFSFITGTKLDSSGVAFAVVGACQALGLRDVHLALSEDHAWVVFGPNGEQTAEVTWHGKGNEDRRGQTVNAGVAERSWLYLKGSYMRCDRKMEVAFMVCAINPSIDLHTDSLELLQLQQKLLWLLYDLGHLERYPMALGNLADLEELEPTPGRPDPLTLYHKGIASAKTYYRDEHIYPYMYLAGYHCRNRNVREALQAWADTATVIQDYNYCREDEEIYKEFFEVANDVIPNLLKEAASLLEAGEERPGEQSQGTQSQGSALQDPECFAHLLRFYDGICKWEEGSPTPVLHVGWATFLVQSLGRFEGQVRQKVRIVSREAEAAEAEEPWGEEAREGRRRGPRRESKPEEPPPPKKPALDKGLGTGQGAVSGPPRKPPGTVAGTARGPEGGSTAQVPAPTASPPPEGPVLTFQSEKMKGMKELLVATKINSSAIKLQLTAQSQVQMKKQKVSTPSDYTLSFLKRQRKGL
With `CC(C)C[C@@H](COc1ccccc1)N1CCN(Cc2ccccc2)CCC1=O` the Potency was inconclusive: 12.6 µM [fluorescent, side channel, partial curve]. `CCCC(c1nnnn1Cc1ccc(OC)cc1)N1CCN(c2ccccc2OC)CC1` (configuration not stated) was tested, and the Potency was inconclusive: 11.2 µM [inhibitor, partial curve]. For `Cc1oc(/C=N/NC(=O)CC2(C)OCCO2)cc1Br`, the Potency was “inactive”. In the case of `CC(C)NC(=O)c1ccc2c(=O)n(CC3CCCO3)c(=S)[nH]c2c1` (configuration not stated), the Potency is reported as “inactive”. In the case of `N#Cc1ccc(-c2ccc3c(c2)OCO3)nc1SCC(=O)OCc1ccccc1`, the Potency is reported as “inactive”. In the case of `C/C(=N\NC(=O)C(C)Oc1ccc([N+](=O)[O-])cc1)c1ccccn1` (configuration not stated), the Potency is reported as “inactive”. `COCCN1C=C2C(=O)C(C)(OC(=O)c3cccs3)C(=O)C=C2C=C1CCCC(=O)OC` (configuration not stated) was tested, and the Potency was inconclusive: 3.16 µM [inhibitor, partial curve]. For `CCN(CC)c1ccc(C2Nc3cccc4cccc(c34)N2)c(O)c1`, the Potency was inconclusive: 3.55 µM [quencher, side channel, full curve]. With `Cc1ccc(C(=O)c2nocc2C(=O)c2cccs2)cc1` the Potency was inconclusive: 12.6 µM [quencher, side channel, partial curve]. With `CCc1nnc(NS(=O)(=O)c2ccc(NC(=S)NC(=O)/C=C/c3ccccc3)cc2)s1` the Potency was inconclusive: 31.6 µM [quencher, side channel, partial curve]. In the case of `Cc1ccc2[nH]c(=O)c(C(c3nnnn3C3CCCC3)N(Cc3cccnc3)Cc3ccco3)cc2c1` (configuration not stated), the Potency is reported as inconclusive: 31.6 µM [inhibitor, single point]. In the case of `CCC(=O)Nc1ccc(NC(=O)/C=C/c2ccc(Cl)cc2)cc1`, the Potency is reported as inconclusive: 17.8 µM [inhibitor, single point]. `Cc1cc(=O)n2[nH]c(-c3cccc(Cl)c3)cc2n1` was tested, and the Potency was inconclusive: 44.7 µM [quencher, side channel, partial curve, poor fit]. With `Cc1ccc(/C=N\NC(=O)C2CN(S(=O)(=O)c3ccccc3)CCN2S(=O)(=O)c2ccccc2)cc1` (configuration not stated) the Potency was inconclusive: 25.1 µM [inhibitor, partial curve]. In the case of `CCCN1C(=O)/C(=C/c2ccco2)SC1=Nc1ccc(OC)cc1`, the Potency is reported as inconclusive: 15.8 µM [quencher, side channel, partial curve]. With `C=CCn1c(SCC(=O)Nc2sc(C)c(C)c2C(=O)OCC)nnc1-c1sc(N)nc1C` the Potency was inconclusive: 39.8 µM [inhibitor, single point]. In the case of `COc1cc(/C=C2\C(=N)N3N=C(S(C)(=O)=O)SC3=NC2=O)ccc1OCCOc1ccc(C)cc1`, the Potency is reported as inconclusive: 4.47 µM [quencher, side channel, full curve]. With `Cc1cc(C)cc(N(C(=O)c2ccc3c(c2)OCO3)C2C=CS(=O)(=O)C2)c1` (configuration not stated) the Potency was inconclusive: 3.16 µM [inhibitor, partial curve]. `CCOC(=O)C1CCN(C(=O)COc2ccc(Br)cc2C)CC1` was tested, and the Potency was inconclusive: 20 µM [fluorescent, side channel, partial curve]. In the case of `COc1ccc(C(=O)Nc2ccccc2-c2nnn(CC(=O)N3CCOCC3)n2)cc1`, the Potency is reported as inconclusive: 39.8 µM [quencher, side channel, single point]. In the case of `CC1CCN(Cc2cnc(Cl)s2)CC1`, the Potency is reported as “inactive”. With `O=S(=O)(Nc1ccc(O)c(Sc2nc3ccccc3s2)c1)c1cccc2ccccc12` the Potency was inconclusive: 2.82 µM [quencher, side channel, full curve, poor fit]. For `COc1ccc2cc(C(=O)C3CCCN(Cc4cnc(C)s4)C3)ccc2c1` (configuration not stated), the Potency was inconclusive: 10 µM [fluorescent, side channel, partial curve]. `Cc1cc(Br)ccc1OCC(=O)NNC(=O)CCc1ccccc1` was tested, and the Potency was inconclusive: 39.8 µM [inhibitor, single point]. `O=C(COc1ccc2c(c1)OCO2)Nc1ccc2c(c1)oc1ccccc12` was tested, and the Potency was inconclusive: 14.1 µM [inhibitor, partial curve]. `O=c1[nH]c(O)c(/C=C2\C=Nc3ccccc32)[nH]1` was tested, and the Potency was inconclusive: 31.6 µM [quencher, side channel, single point]. `C(=N\Nc1nc(-c2ccccc2)cs1)/c1ccco1` was tested, and the Potency was inconclusive: 25.1 µM [quencher, partial curve]. `O=C(/C=C/c1ccc2c(c1)OCO2)NCCSCc1cccc(Cl)c1` was tested, and the Potency was inconclusive: 31.6 µM [quencher, side channel, single point]. With `O=c1oc2cc(OCc3c(F)cccc3Cl)ccc2cc1-c1ccccn1` the Potency was inconclusive: 8.91 µM [inhibitor, partial curve]. `COC(=O)C(Nc1ccccc1Cl)(c1cc(C)c(O)c(C)c1)C(F)(F)F` (configuration not stated) was tested, and the Potency was inconclusive: 31.6 µM [quencher, side channel, partial curve]. In the case of `COc1ccc(S(=O)(=O)Cc2ccc(C(=O)N3CCN(c4ccccc4)CC3)o2)cc1`, the Potency is reported as inconclusive: 44.7 µM [inhibitor, partial curve]. `O=C(NC1CCCCC1)C1CC=CCC1C(=O)OCC(Cl)=C(Cl)Cl` (configuration not stated) was tested, and the Potency was inconclusive: 22.4 µM [fluorescent, side channel, single point]. For `O=C(Nc1ccc(F)cc1)Nc1nnc(COc2ccccc2F)s1`, the Potency was inconclusive: 22.4 µM [quencher, side channel, partial curve]. `O=C(Nc1cc(S(=O)(=O)Nc2ccc(Cl)cc2)ccc1O)c1ccc(S(=O)(=O)N2CCCCCC2)cc1` was tested, and the Potency was inconclusive: 3.16 µM [quencher, side channel, full curve]. `CC(=O)c1cccc(Nc2c3c(nc4ccccc24)CCC3)c1` was tested, and the Potency was inconclusive: 8.91 µM [inhibitor, full curve, poor fit]. In the case of `Cc1ccc(S(=O)(=O)N(CC(=O)N/N=C/c2ccc(F)cc2)c2cccc3cccnc23)cc1`, the Potency is reported as inconclusive: 3.55 µM [inhibitor, partial curve]. `CS(=O)(=O)c1ccc2nc(NC(=O)c3cc([N+](=O)[O-])cc([N+](=O)[O-])c3)sc2c1` was tested, and the Potency was inconclusive: 17.8 µM [quencher, side channel, partial curve]. In the case of `O=C(CSc1nnc(Cc2cccs2)n1-c1ccccc1)NC1CCCCC1`, the Potency is reported as inconclusive: 39.8 µM [fluorescent, side channel, single point]. For `Cc1ccc(NC2(c3nnnn3-c3c(C)cccc3C)CCCCC2)cc1`, the Potency was “inactive”. With `COc1ccc(-n2ncc3c(N(C)C4CCCCC4)ncnc32)cc1` the Potency was inconclusive: 8.91 µM [quencher, side channel, single point]. `Cc1ccc2oc(-c3cc(NC(=O)c4ncn[nH]4)ccc3O)nc2c1` was tested, and the Potency was inconclusive: 3.16 µM [inhibitor, full curve, poor fit]. With `O=C(c1cccc(F)c1)N1CCN(Cc2ccc3c(c2)OCO3)CC1` the Potency was inconclusive: 10 µM [inhibitor, partial curve]. For `COc1ccc(-c2[nH]c(-c3ccc(C)cc3)nc2SCC(=O)NCc2ccco2)cc1OC`, the Potency was inconclusive: 7.94 µM [quencher, side channel, partial curve]. With `CCOc1ccc(NC(=O)Nc2cccs2)cc1` the Potency was inconclusive: 31.6 µM [quencher, side channel, single point]. With `O=C(CN(C(=O)CCC(=O)Nc1nccs1)c1ccccc1F)NCc1ccc(F)cc1` the Potency was inconclusive: 25.1 µM [fluorescent, side channel, partial curve]. In the case of `O=C(COC(=O)c1ccccc1Cl)NCCC1=CCCCC1`, the Potency is reported as inconclusive: 25.1 µM [fluorescent, side channel, single point]. With `CC[C@H](C)[C@H](NC(=O)[C@H](C)NC(=O)[C@H](CC(=O)O)NC(=O)[C@H](CO)NC(=O)[C@@H](N)Cc1cnc[nH]1)C(=O)N[C@@H](Cc1ccccc1)C(=O)N[C@H](C(=O)N[C@@H](CCC(N)=O)C(=O)N[C@@H](CCC(N)=O)C(=O)N[C@@H](Cc1ccc(O)cc1)C(=O)N[C@@H](CO)C(=O)N[C@@H](CCCCN)C(=O)N[C@@H](CC(C)C)C(=O)N[C@@H](CC(C)C)C(=O)N[C@@H](C)C(=O)N[C@@H](CCCCN)C(=O)N[C@@H](CC(C)C)C(=O)N[C@@H](C)C(=O)N[C@@H](CC(C)C)C(=O)N[C@@H](CCC(N)=O)C(=O)N[C@@H](CCCCN)C(=O)N[C@@H](Cc1ccc(O)cc1)C(=O)N[C@@H](CC(C)C)C(=O)N[C@@H](C)C(=O)N[C@@H](CO)C(=O)N[C@H](C(=O)N[C@@H](CC(C)C)C(=O)NCC(=O)N[C@@H](CO)C(=O)N[C@@H](CCCNC(=N)N)C(=O)N[C@H](C(=O)N[C@@H](CO)C(=O)N1CCC[C@H]1C(=O)N1CCC[C@H]1C(=O)N1CCC[C@H]1C(N)=O)[C@@H](C)O)[C@@H](C)CC)[C@@H](C)O` the Potency was “inactive”. With `CC(=O)Nc1ccc(NC(=O)CSc2nc(C)nc3sc(C)c(C)c23)cc1` the Potency was inconclusive: 39.8 µM [fluorescent, side channel, single point]. With `O=C(N/N=C\c1c[nH]c2ccccc12)c1ccc(O)cc1` the Potency was inconclusive: 20 µM [quencher, side channel, partial curve]. With `CCCCc1ccc(NC(=O)N2CCN(c3cc(C)nc4ccccc34)CC2)c(C)c1` the Potency was inconclusive: 11.2 µM [fluorescent, side channel, partial curve]. `O=c1ccc2ccccc2[nH]1` was tested, and the Potency was “inactive”. In the case of `COc1cc(-c2nc(-c3ccccc3)c(-c3ccc(F)cc3)[nH]2)cc2c1OCO2`, the Potency is reported as inconclusive: 10 µM [quencher, side channel, partial curve].
